To fix the notation:
B1: AACGCUG (DNA:RNA)
RNA: GGGAGACCGGAAUUCAGAUUGUCCAACGCUGUUAAAUCCCGUCGUAGCCACCA
DNA 1: CAATCTGAATTCCGGTCTCCC
DNA 2: TGGTGGCTACGACGGGATT
B2: GCUCAAG (DNA:RNA)
RNA: B1 RNA with A25G, A26C, C27U, G28C, C29A, U30A
DNA 1: CAATCTGAATTCCGGTCTCCC
DNA 2: TGGTGGCTACGACGGGATT
B3: CGUCGUU (DNA:RNA)
RNA: B1 RNA with A25C, A26G, C27U, G28C, C29G, G31U
DNA 1: CAATCTGAATTCCGGTCTCCC
DNA 2: TGGTGGCTACGACGGGATT
B4: UCGCCGC (DNA:RNA)
RNA: B1 RNA with A25U, A26C, C27G, G28C, U30G, G31C
DNA 1: CAATCTGAATTCCGGTCTCCC
DNA 2: TGGTGGCTACGACGGGATT
B5: UACGGCU (DNA:RNA)
RNA: B1 RNA with A25U, C29G, U30C, G31U
DNA 1: CAATCTGAATTCCGGTCTCCC
DNA 2: TGGTGGCTACGACGGGATT
B6: UGAGAGC (DNA:RNA)
RNA: B1 RNA with A25U, A26G, C27A, C29A, U30G, G31C
DNA 1: CAATCTGAATTCCGGTCTCCC
DNA 2: TGGTGGCTACGACGGGATT
B7: AUUGAUA (DNA:RNA)
RNA: B1 RNA with A26U, C27U, C29A, G31A
DNA 1: CAATCTGAATTCCGGTCTCCC
DNA 2: TGGTGGCTACGACGGGATT
B8: AGAAUCA (DNA:RNA)
RNA: B1 RNA with A26G, C27A, G28A, C29U, U30C, G31A
DNA 1: CAATCTGAATTCCGGTCTCCC
DNA 2: TGGTGGCTACGACGGGATT
B9: AGUUCGU (DNA:RNA)
RNA: B1 RNA with A26G, C27U, G28U, U30G, G31U
DNA 1: CAATCTGAATTCCGGTCTCCC
DNA 2: TGGTGGCTACGACGGGATT
B10: ACACGCC (DNA:RNA)
RNA: B1 RNA with A26C, C27A, G28C, C29G, U30C, G31C
DNA 1: CAATCTGAATTCCGGTCTCCC
DNA 2: TGGTGGCTACGACGGGATT
B11: UAGCGCA (DNA:RNA)
RNA: B1 RNA with A25U, C27G, G28C, C29G, U30C, G31A
DNA 1: CAATCTGAATTCCGGTCTCCC
DNA 2: TGGTGGCTACGACGGGATT
B12: AACUUUA (DNA:RNA)
RNA: B1 RNA with G28U, C29U, G31A
DNA 1: CAATCTGAATTCCGGTCTCCC
DNA 2: TGGTGGCTACGACGGGATT
B13: UCGCUUU (DNA:RNA)
RNA: B1 RNA with A25U, A26C, C27G, G28C, C29U, G31U
DNA 1: CAATCTGAATTCCGGTCTCCC
DNA 2: TGGTGGCTACGACGGGATT
B14: UGGGGAA (DNA:RNA)
RNA: B1 RNA with A25U, A26G, C27G, C29G, U30A, G31A
DNA 1: CAATCTGAATTCCGGTCTCCC
DNA 2: TGGTGGCTACGACGGGATT
B15: UCAGAAG (DNA:RNA)
RNA: B1 RNA with A25U, A26C, C27A, C29A, U30A
DNA 1: CAATCTGAATTCCGGTCTCCC
DNA 2: TGGTGGCTACGACGGGATT
B16: CGCGUGC (DNA:RNA)
RNA: B1 RNA with A25C, A26G, C29U, U30G, G31C
DNA 1: CAATCTGAATTCCGGTCTCCC
DNA 2: TGGTGGCTACGACGGGATT
B17: CAUCGGC (DNA:RNA)
RNA: B1 RNA with A25C, C27U, G28C, C29G, U30G, G31C
DNA 1: CAATCTGAATTCCGGTCTCCC
DNA 2: TGGTGGCTACGACGGGATT
B18: CGCUAAG (DNA:RNA)
RNA: B1 RNA with A25C, A26G, G28U, C29A, U30A
DNA 1: CAATCTGAATTCCGGTCTCCC
DNA 2: TGGTGGCTACGACGGGATT
B19: AAAGGUA (DNA:RNA)
RNA: B1 RNA with C27A, C29G, G31A
DNA 1: CAATCTGAATTCCGGTCTCCC
DNA 2: TGGTGGCTACGACGGGATT
B20: UUACCCU (DNA:RNA)
RNA: B1 RNA with A25U, A26U, C27A, G28C, U30C, G31U
DNA 1: CAATCTGAATTCCGGTCTCCC
DNA 2: TGGTGGCTACGACGGGATT
B21: ACGCUCU (DNA:RNA)
RNA: B1 RNA with A26C, C27G, G28C, C29U, U30C, G31U
DNA 1: CAATCTGAATTCCGGTCTCCC
DNA 2: TGGTGGCTACGACGGGATT
B22: AAGCUGG (DNA:RNA)
RNA: B1 RNA with C27G, G28C, C29U, U30G
DNA 1: CAATCTGAATTCCGGTCTCCC
DNA 2: TGGTGGCTACGACGGGATT
B23: CAUGAAC (DNA:RNA)
RNA: B1 RNA with A25C, C27U, C29A, U30A, G31C
DNA 1: CAATCTGAATTCCGGTCTCCC
DNA 2: TGGTGGCTACGACGGGATT
B24: AUUUUAG (DNA:RNA)
RNA: B1 RNA with A26U, C27U, G28U, C29U, U30A
DNA 1: CAATCTGAATTCCGGTCTCCC
DNA 2: TGGTGGCTACGACGGGATT
B25: GCUCUUC (DNA:RNA)
RNA: B1 RNA with A25G, A26C, C27U, G28C, C29U, G31C
DNA 1: CAATCTGAATTCCGGTCTCCC
DNA 2: TGGTGGCTACGACGGGATT
B26: GGCAACU (DNA:RNA)
RNA: B1 RNA with A25G, A26G, G28A, C29A, U30C, G31U
DNA 1: CAATCTGAATTCCGGTCTCCC
DNA 2: TGGTGGCTACGACGGGATT
B27: GCCAAGG (DNA:RNA)
RNA: B1 RNA with A25G, A26C, G28A, C29A, U30G
DNA 1: CAATCTGAATTCCGGTCTCCC
DNA 2: TGGTGGCTACGACGGGATT
B28: CGCGGGU (DNA:RNA)
RNA: B1 RNA with A25C, A26G, C29G, U30G, G31U
DNA 1: CAATCTGAATTCCGGTCTCCC
DNA 2: TGGTGGCTACGACGGGATT
B29: UGGCCCC (DNA:RNA)
RNA: B1 RNA with A25U, A26G, C27G, G28C, U30C, G31C
DNA 1: CAATCTGAATTCCGGTCTCCC
DNA 2: TGGTGGCTACGACGGGATT
B30: GUGCAGU (DNA:RNA)
RNA: GGGAGACCGGAAUUCAGAUUGUCCGUGCAGUUUAAAUCCCGUCGUAGCCACCA
DNA 1: CAATCTGAATTCCGGTCTCCC
DNA 2: TGGTGGCTACGACGGGATT
B31: ACACAAG (DNA:RNA)
RNA: B1 RNA with A26C, C27A, G28C, C29A, U30A
DNA 1: CAATCTGAATTCCGGTCTCCC
DNA 2: TGGTGGCTACGACGGGATT

Residue numbers refer to the chain shown, from its start. The list shows a part of the results.

In the assay the target is T1, RBFOX1 RRM (Homo sapiens, UniProt Q9NWB1 109-208).
T1 sequence: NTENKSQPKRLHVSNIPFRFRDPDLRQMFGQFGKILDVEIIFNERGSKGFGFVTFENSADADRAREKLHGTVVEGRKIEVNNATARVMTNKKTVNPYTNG
The assay is described as follows: EMSA; HiTS-Eq, 1 nM pool, 10 min; buffer printed only for the single-RNA assays: 10 mM Tris pH 7.5, 150 mM NaCl, 3.4 mM EDTA, 0.001% NP-40, 30 C. To be noted: tags: His6 N-terminal (pET28a); label: 5' 32P. In a few lines:
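Purified RbFox RRM, wild type or mutant, was incubated for 10 min in 50 µL with 1 nM of a 5′-radiolabelled RNA pool carrying 7 randomized nucleotides, whose flanks were annealed to DNA oligonucleotides, over a series of increasing protein concentrations. Unbound RNA was resolved on 8% native PAGE, cut out, reverse-transcribed, barcoded by PCR and sequenced on an Illumina HiSeq 2500. Relative association constants were derived from changes in read counts for each RNA species versus the control reaction and normalised to the cognate motif.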
As for B1, the binding signal was 0.00777 KA relative to UGCAUGU.
The result for B2 reads 0.0107 KA relative to UGCAUGU; that for B3, 0.0131 KA relative to UGCAUGU; that for B4, 0.012 KA relative to UGCAUGU.
Next, B5: 0.0135 KA relative to UGCAUGU; B6: 0.0225 KA relative to UGCAUGU.
Turning to B7, the binding signal is 0.00614 KA relative to UGCAUGU.
The result for B8 reads 0.00374 KA relative to UGCAUGU; that for B9, 0.0166 KA relative to UGCAUGU; that for B10, 0.00554 KA relative to UGCAUGU.
The result for B11 reads 0.018 KA relative to UGCAUGU; that for B12, 0.000524 KA relative to UGCAUGU.
Next, B13: 0.0132 KA relative to UGCAUGU; B14: 0.0174 KA relative to UGCAUGU.
As to B15, the binding signal was 0.00595 KA relative to UGCAUGU.
Next, B16: 0.0241 KA relative to UGCAUGU; B17: 0.00665 KA relative to UGCAUGU; B18: 0.00892 KA relative to UGCAUGU.
The result for B19 reads 0.00508 KA relative to UGCAUGU; that for B20, 0.00311 KA relative to UGCAUGU; that for B21, 0.00565 KA relative to UGCAUGU.
Next, B22: 0.0133 KA relative to UGCAUGU.
Turning to B23, the binding signal is 0.00509 KA relative to UGCAUGU.
In the case of B24, the binding signal is 0.00948 KA relative to UGCAUGU.
The result for B25 reads 0.0155 KA relative to UGCAUGU; that for B26, 0.00583 KA relative to UGCAUGU; that for B27, 0.013 KA relative to UGCAUGU.
Next, B28: 0.00704 KA relative to UGCAUGU; B29: 0.0181 KA relative to UGCAUGU.
Next, B30: 0.0179 KA relative to UGCAUGU.
With B31, the binding signal is 0.000734 KA relative to UGCAUGU.
